Experimental data reported in the CheMixHub viscosity set.
Where “and” joins values, the source holds several entries; their conditions need not be identical. Identical values can stand only once. This continues a long series; more values of the same kind are listed elsewhere.

Legend:
[1] = 101 kPa
[2] = xn = mol fraction of the nth substance listed

CCCCn1cc[n+](C)c1.COS(=O)(=O)[O-]
[1]
Conditions | viscosity [mPa·s]
298.15 K | 215.2
299.15 K | 202.9
301.15 K | 181.2
302.15 K | 171.4
303.15 K | 162.3
304.15 K | 156.8
305.15 K | 145.7
307.15 K | 131.2

CCCCCCCCO + COC(=O)OC
[2], 323.15 K, 100 kPa
Conditions | viscosity [mPa·s]
x2 = 0.1999 | 2.004
x2 = 0.3 | 1.581
x2 = 0.3999 | 1.262
x2 = 0.5 | 1.023
x2 = 0.6 | 0.832
x2 = 0.7 | 0.699
x2 = 0.7999 | 0.578
x2 = 0.9 | 0.491

CN1CCCN(C)C1=O + O
viscosity, [2]
Conditions | 293.15 K | 298.15 K | 303.15 K | 323.15 K
100 kPa, x1 = 0.007139 | 1.207 mPa·s | 1.066 mPa·s | – | 0.639 mPa·s
100 kPa, x1 = 0.01508 | 1.435 mPa·s | 1.267 mPa·s | – | 0.776 mPa·s
100 kPa, x1 = 0.0297 | – | – | – | 0.902 mPa·s
100 kPa, x1 = 0.0568 | 2.715 mPa·s | 2.295 mPa·s | – | 1.25 mPa·s
100 kPa, x1 = 0.08573 | 3.965 mPa·s | 3.285 mPa·s | – | 1.579 mPa·s
100 kPa, x1 = 0.1227 | 5.656 mPa·s | 4.614 mPa·s | – | 2.041 mPa·s
100 kPa, x1 = 0.1461 | 6.909 mPa·s | 5.559 mPa·s | – | 2.35 mPa·s
100 kPa, x1 = 0.1745 | 8.375 mPa·s | 6.615 mPa·s | – | 2.651 mPa·s
100 kPa, x1 = 0.2062 | 9.318 mPa·s | 7.376 mPa·s | – | 2.91 mPa·s
100 kPa, x1 = 0.2453 | 10.24 mPa·s | 8.068 mPa·s | – | 3.139 mPa·s
100 kPa, x1 = 0.2961 | 10.82 mPa·s | 8.492 mPa·s | – | 3.296 mPa·s
100 kPa, x1 = 0.3486 | 10.68 mPa·s | 8.424 mPa·s | – | 3.327 mPa·s
100 kPa, x1 = 0.3968 | 10.08 mPa·s | 7.993 mPa·s | – | 3.215 mPa·s
100 kPa, x1 = 0.4616 | 9.277 mPa·s | 7.512 mPa·s | – | 3.185 mPa·s
100 kPa, x1 = 0.5081 | 8.518 mPa·s | 6.965 mPa·s | – | 3.064 mPa·s
100 kPa, x1 = 0.5809 | 7.345 mPa·s | 6.105 mPa·s | – | 2.855 mPa·s
100 kPa, x1 = 0.6498 | 6.342 mPa·s | 5.325 mPa·s | – | 2.593 mPa·s
100 kPa, x1 = 0.6917 | 5.824 mPa·s | 4.954 mPa·s | – | 2.499 mPa·s
100 kPa, x1 = 0.797 | 4.745 mPa·s | 4.102 mPa·s | – | 2.219 mPa·s
100 kPa, x1 = 0.8669 | 4.17 mPa·s | 3.644 mPa·s | – | 2.055 mPa·s
100 kPa, x1 = 0.9357 | 3.761 mPa·s | 3.326 mPa·s | – | 1.968 mPa·s
100 kPa, x1 = 0.9554 | 3.604 mPa·s | 3.187 mPa·s | – | 1.886 mPa·s
100 kPa, x2 = 0.0016 | 3.278 mPa·s and 3.3 mPa·s | 2.917 mPa·s and 2.937 mPa·s | 2.609 mPa·s and 2.628 mPa·s | –
100 kPa, x2 = 0.0169 | 3.401 mPa·s | 3.022 mPa·s | 2.7 mPa·s | –
101 kPa, x1 = 0.06 | – | 2.48 mPa·s | – | –
101 kPa, x1 = 0.2 | – | 7.11 mPa·s | – | –
101 kPa, x1 = 0.304 | – | 8.44 mPa·s | – | –
101 kPa, x1 = 0.348 | – | 8.47 mPa·s | – | –
101 kPa, x1 = 0.4 | – | 8.02 mPa·s | – | –
101 kPa, x1 = 0.487 | – | 7.06 mPa·s | – | –
101 kPa, x1 = 0.548 | – | 6.32 mPa·s | – | –
101 kPa, x1 = 0.699 | – | 4.79 mPa·s | – | –

N[C@@H](Cc1c[nH]cn1)C(=O)O + O
[2], 100 kPa
Conditions | viscosity [mPa·s]
298.15 K, x1 = 0.0011 | 0.9027
298.15 K, x1 = 0.00145 | 0.9066
298.15 K, x1 = 0.00177 | 0.9102
298.15 K, x1 = 0.002209 | 0.915
303.15 K, x1 = 0.000193 | 0.7995
303.15 K, x1 = 0.002209 | 0.8207
308.15 K, x1 = 0.000193 | 0.7212
308.15 K, x1 = 0.000403 | 0.7232
308.15 K, x1 = 0.00074 | 0.7265
308.15 K, x1 = 0.0011 | 0.73
308.15 K, x1 = 0.00145 | 0.7334
313.15 K, x1 = 0.000403 | 0.6569
313.15 K, x1 = 0.00074 | 0.6601

O=C[C@H](O)[C@@H](O)[C@H](O)[C@H](O)CO + O
[2]
Conditions | viscosity
293.15 K, 100 kPa, x1 = 0.024 | 1.9 mPa·s
293.15 K, 101 kPa, x1 = 0.001 | 1.019 mPa·s
293.15 K, 101 kPa, x1 = 0.0018 | 1.036 mPa·s
293.15 K, 101 kPa, x1 = 0.002 | 1.043 mPa·s
293.15 K, 101 kPa, x1 = 0.005 | 1.137 mPa·s
293.15 K, 101 kPa, x1 = 0.011 | 1.286 mPa·s
298.15 K, 101 kPa, x1 = 0.0002 | 0.9013 mPa·s
298.15 K, 101 kPa, x1 = 0.00045 | 0.893 mPa·s
298.15 K, 101 kPa, x1 = 0.0005 | 0.9169 mPa·s
298.15 K, 101 kPa, x1 = 0.0009 | 0.895 mPa·s
298.15 K, 101 kPa, x1 = 0.001 | 0.9634 mPa·s and 0.906 mPa·s
298.15 K, 101 kPa, x1 = 0.0013 | 0.898 mPa·s
298.15 K, 101 kPa, x1 = 0.0018 | 0.9874 mPa·s and 0.9 mPa·s and 0.922 mPa·s
298.15 K, 101 kPa, x1 = 0.002 | 0.9826 mPa·s
298.15 K, 101 kPa, x1 = 0.011 | 1.154 mPa·s
298.15 K, 101 kPa, x1 = 0.01901 | 1.517 mPa·s
303.15 K, 100 kPa, x1 = 0.0009 | 0.819 mPa·s
303.15 K, 100 kPa, x1 = 0.0027 | 0.853 mPa·s
303.15 K, 100 kPa, x1 = 0.0045 | 0.887 mPa·s
303.15 K, 100 kPa, x1 = 0.0063 | 0.9201 mPa·s
303.15 K, 101 kPa, x1 = 0.001 | 0.814 mPa·s
303.15 K, 101 kPa, x1 = 0.0018 | 0.828 mPa·s
303.15 K, 101 kPa, x1 = 0.002 | 0.83 mPa·s
303.15 K, 101 kPa, x1 = 0.005 | 0.9067 mPa·s
303.15 K, 101 kPa, x1 = 0.011 | 1.036 mPa·s
308.15 K, 101 kPa, x1 = 0.00045 | 0.722 mPa·s
308.15 K, 101 kPa, x1 = 0.0009 | 0.723 mPa·s
308.15 K, 101 kPa, x1 = 0.0013 | 0.725 mPa·s
308.15 K, 101 kPa, x1 = 0.0018 | 0.727 mPa·s and 0.748 mPa·s
308.15 K, 101 kPa, x1 = 0.005 | 0.8176 mPa·s
308.15 K, 101 kPa, x1 = 0.011 | 0.9311 mPa·s
313.15 K, 100 kPa, x1 = 0.0009 | 0.6716 mPa·s
313.15 K, 100 kPa, x1 = 0.024 | 1.15 mPa·s
313.15 K, 101 kPa, x1 = 0.001 | 0.67 mPa·s
313.15 K, 101 kPa, x1 = 0.0018 | 0.681 mPa·s
313.15 K, 101 kPa, x1 = 0.002 | 0.683 mPa·s
313.15 K, 101 kPa, x1 = 0.005 | 0.7401 mPa·s
313.15 K, 101 kPa, x1 = 0.011 | 0.8389 mPa·s
318.15 K, 101 kPa, x1 = 0.00045 | 0.598 mPa·s
318.15 K, 101 kPa, x1 = 0.0009 | 0.6 mPa·s
318.15 K, 101 kPa, x1 = 0.0013 | 0.602 mPa·s
318.15 K, 101 kPa, x1 = 0.0018 | 0.604 mPa·s
318.15 K, 101 kPa, x1 = 0.005 | 0.6767 mPa·s
318.15 K, 101 kPa, x1 = 0.011 | 0.7615 mPa·s
